Whole data set: some 33,000 sequences, median “E-score (-0.5 to 0.5)” near -0.016, cut for the highest 2% near 0.31. This is one part of the list.
Biological target: Cst6 (UniProt P40535)
Experiment: PBM E-score (8-mer binding enrichment) (E-score (-0.5 to 0.5)); higher = stronger / more preferred TF binding; most listed sequences are background and not binding sites
Conditions: protein concentration: 200 nM; construct: GST-DNA-binding domain
How it was run: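 Universal all-10-mer Agilent arrays, fresh or stripped once, were converted to double-stranded form by primer extension. GST-tagged yeast transcription factors from PURExpress in vitro transcription/translation, full-length or DNA-binding domain only, were applied at about 100-200 nM and detected with fluorescent anti-GST. After masliner normalisation, the Universal PBM Analysis Suite scored each ungapped eight-base word together with its reverse complement by E-score.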

Row | Sequence | PBM E-score
1 | TCTATCCA | -0.0177
2 | CAGGGGGG | -0.413
3 | AGCTATTG | -0.0728
4 | CCTACCGC | -0.16
5 | AGGTGTTC | -0.181
6 | ATGTCGCA | -0.0497
7 | CAGAGGGA | -0.291
8 | CGGAACAC | 0.0157
9 | AGTCGTTG | -0.171
10 | ATACGCGC | 0.064
11 | AAGAAGAA | 0.0641
12 | GCGATATA | 0.085
13 | CGTCACCC | 0.466
14 | CATAGCGA | -0.0109
15 | GTCCCTGA | -0.178
16 | AGGTGGGG | -0.0662
17 | CACAGTTC | -0.122
18 | CACTTTCG | 0.2
19 | AAAATGGC | 0.175
20 | GAGATGGC | 0.051
21 | GTCCAGAA | 0.0316
22 | ATGACTGG | -0.216
23 | CCGTCCCG | -0.219
24 | GAGCTATC | -0.129
25 | CCTTATGC | 0.0524

Row | Sequence | PBM E-score
26 | GCGGCGGA | 0.0162
27 | TGCATTAA | 0.21
28 | TCTTACCA | -0.00252
29 | CAAGTAGA | -0.229
30 | AGGGACGA | 0.0201
31 | CCGGCAAC | -0.0928
32 | CTAGGAAA | -0.0799
33 | ACCCCGAC | -0.311
34 | CGGGCTAA | -0.18
35 | TAATAGAA | 0.152
36 | AGTCGAGG | -0.135
37 | ACTTACCA | -0.0152
38 | CCTTGGGA | -0.133
39 | CTCAACTA | 0.0351
40 | AGGGTCAG | -0.285
41 | AGACAGAC | 0.27
42 | GTAGACTA | -0.249
43 | ATATAGAA | 0.172
44 | GAACGAAC | 0.0931
45 | AAAGTCCA | -0.128
46 | AGCCTGGA | -0.278
47 | AATCCCTA | -0.0579
48 | AGGGCTAG | -0.242
49 | ACTATCCT | -0.0869
50 | GGCGATAA | 0.0598

Row | Sequence | PBM E-score
51 | CACATCCC | -0.273
52 | ATGATGAA | 0.367
53 | AGGCCGAA | -0.171
54 | GACATTAC | 0.197
55 | CTCTGGTA | -0.21
56 | AGCCGTGG | 0.00348
57 | ACAAGGTG | 0.12
58 | GACGAGGA | -0.0483
59 | TATCGCGA | -0.0421
60 | ACCAACTG | -0.0621
61 | AGATCGTC | -0.112
62 | CATAGTGG | -0.139
63 | AGAAGCAG | -0.138
64 | TGCATGAA | 0.0867
65 | CCACTAAC | 0.0558
66 | CACCGTCG | -0.174
67 | AGCAGATA | 0.0165
68 | CTTGCATA | 0.163
69 | ATTTTGAA | 0.223
70 | GACTCAAC | 0.0642
71 | ATTTACGG | 0.238
72 | GATACAAC | 0.211
73 | AAAGAGGT | 0.0339
74 | ACCACTAT | -0.178
75 | AAGGGATT | -0.0403

Row | Sequence | PBM E-score
76 | ACTGAGGA | -0.163
77 | ACCCAGCG | -0.12
78 | ATTTAGCC | 0.0684
79 | CCATTTAC | 0.105
80 | GGGGATCA | -0.158
81 | CAAAGCAC | -0.0689
82 | CTGTCTTC | -0.156
83 | ACTTCGGG | -0.19
84 | AAAGTCCC | -0.259
85 | ACCTTGCT | -0.0896
86 | ATATGGAT | 0.101
87 | TAGCGGAA | -0.155
88 | ATCCACTG | -0.0682
89 | ACAGCTAG | -0.256
90 | CGGCACGC | 0.0275
91 | AAAGTTCA | -0.0506
92 | ACTTTACG | 0.198
93 | TGCCAAAA | 0.0693
94 | CGTGGGAA | 0.0103
95 | GTATTAAC | -0.0108
96 | GATAGAGC | -0.0398
97 | CCCGAATA | -0.00448
98 | AAGTAGAC | -0.199
99 | AAATTATT | 0.314
100 | TGCTGTAA | 0.0304

Row | Sequence | PBM E-score
101 | AACCTGAA | -0.181
102 | CATGGCAA | 0.0585
103 | GCCGAACA | 0.0201
104 | TTCAACAA | 0.235
105 | CCAACTAG | -0.0658
106 | ACACAGGG | -0.037
107 | GGGCTTGA | -0.178
108 | CCAATTGC | 0.00419
109 | AGAGACTG | -0.253
110 | AGTTAGAT | 0.117
111 | ATCACCGC | 0.128
112 | ACCGAGCA | -0.0929
113 | ACTCGCCA | -0.037
114 | GGAATGCA | -0.0434
115 | ACGAGTTG | 0.0374
116 | ACGCGTTA | 0.0401
117 | GTTTATCA | 0.208
118 | GGGCGAAA | 0.00936
119 | ATTCTGCC | 0.124
120 | CAGAGACC | -0.059
121 | AATAGAAG | -0.0496
122 | TAGCAGGA | -0.17
123 | AAGTTCTG | 0.0297
124 | CTTAGAAA | 0.101
125 | CTGGATAC | -0.123

Row | Sequence | PBM E-score
126 | CTGCTCGC | -0.251
127 | CGCGCGGA | 0.131
128 | CTCGCCTC | -0.0401
129 | AACCTCGG | -0.0342
130 | GGTTAGAC | -0.154
131 | ATTATAGA | 0.2
132 | CACTTAGG | -0.0458
133 | CGGTTACG | 0.14
134 | CTCTTCGC | -0.241
135 | CAGGGGAG | -0.243
136 | AGGGTTCC | -0.287
137 | ACAATAAC | 0.196
138 | CCGGCGAC | -0.327
139 | GCAACTCA | -0.0113
140 | CTACCCAG | -0.256
141 | CCGCATCC | -0.00385
142 | TAGCCTGA | -0.0426
143 | CTGAAGCA | 0.0318
144 | ACAAAAGG | -0.0736
145 | ACGTAATA | 0.482
146 | GGCCCTTA | -0.0652
147 | CCACAGAA | -0.0102
148 | GAAAACGC | 0.154
149 | ATTGGGTA | -0.0621
150 | AATCGCAC | 0.0197

Row | Sequence | PBM E-score
151 | AACACGAT | 0.164
152 | ATTTATTC | 0.297
153 | GGTACATA | -0.0661
154 | GATCGATA | 0.0815
155 | ACTAGAAC | 0.0684
156 | ACTTGCCA | -0.174
157 | CTCATAGC | -0.0933
158 | AGGGGGAT | -0.272
159 | GAATTTTA | 0.282
160 | ATGTGAGG | 0.0542
161 | GCCGAGAC | -0.0932
162 | CACTCCGC | -0.171
163 | GCACTCCA | -0.217
164 | ACTTTCAG | -0.0757
165 | CATATCTC | 0.0326
166 | ACGATCAT | 0.133
167 | GGTACGAC | -0.199
168 | CATCCCAA | 0.0423
169 | CAGACAGA | 0.0485
170 | GGCTACTA | 0.0372
171 | CTCGATGC | -0.164
172 | TATGGAAA | 0.0824
173 | CGGACATC | -0.196
174 | CGCCGAAA | 0.0529
175 | CGCGGACC | -0.143

Row | Sequence | PBM E-score
176 | AGTGGATC | -0.167
177 | ATATGGCG | 0.0911
178 | GGTCAAGA | 0.00732
179 | CAGGGTAA | -0.0548
180 | CCTACTAG | -0.0922
181 | CAGGATCA | -0.0696
182 | AGCACACG | 0.0295
183 | AAAATAAC | 0.178
184 | CACGTGAA | 0.0421
185 | AGCCCAAT | -0.0737
186 | CCACTGGG | -0.0515
187 | CCTTTGTA | 0.0635
188 | AGGCAATC | 0.0471
189 | ACTTTTCA | 0.133
190 | GTCGGCAC | -0.169
191 | ACGAATGC | 0.0696
192 | AAGTACGT | 0.208
193 | CGGGATCA | -0.2
194 | ATCGCTTG | -0.17
195 | AAAACCCG | -0.0613
196 | CTATTCAC | 0.102
197 | AAGAGTGT | 0.0413
198 | CAAGAAGA | 0.129
199 | GGGTTAGA | -0.116
200 | CATCAACG | 0.228

Row | Sequence | PBM E-score
201 | ACATCACT | 0.401
202 | GATAGGAC | -0.356
203 | ACGACATG | 0.18
204 | TGGTACCA | -0.16
205 | CAGCAATC | -0.00327
206 | ACCTACAT | -0.159
207 | CGCAAGAG | 0.0484
208 | GGGGCTAC | -0.21
209 | ACGGTACT | -0.113
210 | GGATAGAC | -0.114
211 | AACATGAT | 0.197
212 | CACGAACC | -0.139
213 | AAGCGATC | -0.00449
214 | TAATCCTA | -0.118
215 | AAACACAC | 0.138
216 | AACTAAGT | -0.0134
217 | CCCTGCAG | -0.124
218 | CCTTCACG | -0.00619
219 | GGCCAAGA | -0.294
